The supplement of paper PMC3334620
The full ranking holds about 33,000 sequences; the median of “E-score (-0.5 to 0.5)” is about -0.035, and the highest 2% start at about 0.34. This is one part of the list.

target: T1, Mot3 (UniProt P54785); test: PBM E-score (8-mer binding enrichment) (E-score (-0.5 to 0.5)); higher = stronger / more preferred TF binding; most listed sequences are background and not binding sites; conditions: protein concentration: 200 nM; construct: GST-full length
T1 sequence: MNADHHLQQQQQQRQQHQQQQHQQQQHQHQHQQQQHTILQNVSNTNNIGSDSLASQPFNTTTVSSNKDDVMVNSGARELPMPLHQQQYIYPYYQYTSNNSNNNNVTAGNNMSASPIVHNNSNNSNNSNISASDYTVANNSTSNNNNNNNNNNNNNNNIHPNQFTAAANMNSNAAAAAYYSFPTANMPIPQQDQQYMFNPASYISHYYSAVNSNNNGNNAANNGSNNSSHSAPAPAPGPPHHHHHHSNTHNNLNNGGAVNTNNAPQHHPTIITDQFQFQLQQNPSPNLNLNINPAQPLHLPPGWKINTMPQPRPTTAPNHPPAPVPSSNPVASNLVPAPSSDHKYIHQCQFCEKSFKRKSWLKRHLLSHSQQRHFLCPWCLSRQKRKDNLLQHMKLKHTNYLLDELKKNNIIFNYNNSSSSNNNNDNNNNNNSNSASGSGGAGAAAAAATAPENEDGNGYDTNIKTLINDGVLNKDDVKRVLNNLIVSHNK
Method in brief: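 Universal all-10-mer Agilent arrays, double-stranded by primer extension on fresh or once-stripped slides, were probed with about 100-200 nM GST-tagged yeast transcription factors made by PURExpress. Fluorescent anti-GST detected bound protein, and masliner normalised the scans. E-scores from the Universal PBM Analysis Suite were given to each ungapped eight-base word pooled with its reverse complement.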

Sequence | PBM E-score
GCTCTGCA | -0.147
AACTACCA | 0.0545
GGTCGTCA | -0.146
CGTAGGTC | -0.0769
GCGAGTGA | -0.0321
AACATCAA | 0.171
ACTAAGAT | 0.0223
TGGTAAAA | 0.103
CAATCCGC | -0.123
CGAGAGAC | -0.248
CGTCTCAC | -0.0924
AATGCAAG | 0.129
ATACCTAT | 0.106
ACTTCTCC | -0.113
ATAGAGGG | -0.023
ACCGAGTA | 0.0498
TCCCGCCA | -0.297
GGCTTATA | -0.00151
CTGGTATA | -0.226
TATTGCGA | -0.0381
GAGCTGAA | -0.166
ATATATTG | 0.0788
CTATTTAC | 0.243
ATTGGGCG | -0.122
AATCACGC | 0.056

Sequence | PBM E-score
CATTCCTC | -0.00051
GAAACCTA | 0.0788
AAGATTAA | 0.0501
GACCCTTA | -0.104
ATGCTTAA | 0.0923
CATCACGC | -0.173
AAGCTACA | 0.024
ACTACAGT | 0.164
CAAGCCTG | 0.0397
GCGTTCAC | -0.0491
ATGTTGCC | 0.312
CATAGACA | 0.104
ATTTGTAC | 0.126
GAGTCTGA | -0.305
TCATGTAA | 0.414
AAATGCGT | 0.0791
AGCGGCCC | -0.366
AGAGTCTG | -0.213
ACGCTCGC | -0.0398
GGAGCTAC | 0.0233
TAGCCAGA | -0.0655
AGCTAATC | -0.00141
GTCCACGA | -0.38
GTACTCGA | -0.00868
CATATGAA | 0.0626

Sequence | PBM E-score
GAGATCTA | -0.187
TGTTACAA | 0.245
ACAGGGAA | 0.0482
AGCCCAGC | -0.249
AATTGTAA | 0.114
AAGAACCC | -0.116
TAGACGAA | -0.00134
GAGTGTCA | -0.0188
AGAGTGCA | -0.156
GGAGTGTA | 0.168
ATTTACCC | -0.0152
ACCATAAA | 0.00507
CCCAATAC | 0.088
CTTTGGTA | -0.179
ATTAACAC | 0.384
GCCCACCA | -0.345
CCCAAGCG | -0.252
AACTTGTA | 0.125
CTTAAAGA | -0.0303
CATAACAG | 0.0833
AGGAACGG | 0.463
AACTCGAG | -0.0327
GAAGGGAA | -0.213
AAAGATCG | -0.0992
CGTCTCAG | 0.0313

Sequence | PBM E-score
CTTAATAC | 0.286
ACCTCTCC | -0.144
TAAGACTA | 0.00758
GAGAATCC | -0.211
GAATTTGA | -0.213
CGATGATA | 0.0983
CAGGGTCC | -0.0573
ACGATGTA | 0.296
CAGATTAC | 0.237
ACAGTGGA | -0.0998
CATAGCTC | -0.15
CGAGCGTA | -0.0212
CAGAAAGG | 0.0608
TTACGCAA | 0.247
AGTCACAG | 0.0494
CCCCCGCA | -0.214
GTACAGTA | 0.153
AACAGTGA | -0.0719
CAATACCC | -0.00184
TCCGAAGA | -0.311
CGCAATAG | -0.0539
CGATGGCA | -0.0561
ACCGACGG | -0.00788
AACGCATA | 0.166
CTGTGTTC | 0.169

Sequence | PBM E-score
TACGCTCA | -0.0141
CGGAGAAC | -0.237
CAGGGAAG | -0.137
CTTCAATA | 0.207
TGGCGAAA | -0.0484
TAGCACAA | 0.0438
GTGATAAA | -0.0985
GCGTCCAA | -0.0842
ACGTTTGG | -0.144
ACACTGCA | -0.013
ACCGGGGA | -0.27
CTTCTTCC | -0.0601
TGAGATCA | -0.0191
AGCCAACC | -0.226
AAGACGAC | -0.139
CGAGTGCG | -0.257
AGAGACTC | -0.221
CTAGAGTC | -0.22
GTGTAAAC | 0.387
ATGTATCG | 0.279
ATCAGGTG | -0.0867
CTAAAGCA | -0.0303
AAGGCATC | 0.381
CGGAAAAA | 0.0869
AACTGTGG | 0.0771

Sequence | PBM E-score
CCAATTCC | -0.0021
ATTATCGC | -0.106
AGGCAGGC | 0.317
ATGGACAA | 0.0217
AGGGTATG | -0.0136
AATCAAAT | 0.0575
ATTTAACA | 0.354
AGAAAGGA | -0.0478
ACCAGAAC | -0.0583
ATACTCAT | 0.0941
CGCGTCAG | -0.0638
GAGAGGAA | -0.0987
ATATCACG | -0.0148
CGCATAAA | 0.0277
CCTGATTC | -0.0437
ATTAAGAC | 0.0551
TGTACACA | 0.34
ACCCCGGA | -0.0203
GCACTCAA | 0.0611
CCCCGGGG | -0.37
GAAGCACA | -0.0308
CAATCCCG | -0.0236
ATACCGTG | 0.0953
ATTTCTAC | 0.189
ACTACTTG | 0.0769

Sequence | PBM E-score
AACTTAAC | 0.19
GCACGTGA | 0.152
CATTCAGA | -0.135
ATCCGCTA | -0.188
GCGTGTCC | 0.0864
ACACATGT | 0.256
CATTAACG | 0.189
AAGAATCA | -0.0387
ACCTGGGC | -0.268
GGTTGAAC | -0.0209
ACATAGAC | 0.112
ACACATCC | 0.183
GACTGCAA | -0.149
CGCCCCGC | -0.114
GGTGTTGA | 0.0387
AAGGCAAT | 0.479
ATAGCCTG | 0.133
AAGCCCAG | -0.183
AACGTACT | 0.142
TCCAATAA | 0.0678
AGCACCGA | -0.168
ATACTGGA | -0.15
